Source: PMC7819943, “Rice protein-binding microarrays: a tool to detect cis-acting elements near promoter regions in rice”
This is one part of the list.

Target: T1, OsWOX13 (Oryza sativa, UniProt Q5QMM3 1-267)
T1 sequence: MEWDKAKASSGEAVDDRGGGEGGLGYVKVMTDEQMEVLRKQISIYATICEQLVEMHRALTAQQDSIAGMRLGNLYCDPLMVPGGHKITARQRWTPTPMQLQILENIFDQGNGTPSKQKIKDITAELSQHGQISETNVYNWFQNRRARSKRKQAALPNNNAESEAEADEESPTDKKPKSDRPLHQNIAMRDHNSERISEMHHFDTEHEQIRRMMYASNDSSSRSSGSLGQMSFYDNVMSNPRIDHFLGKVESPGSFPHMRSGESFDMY
Test: protein-binding microarray (RPBM); PBS, 2% BSA, 51.3 ng/ul salmon testes DNA, 50 uM zinc acetate, 200 nM TF, 25 C, 1 h; high values mean tight binding
Conditions: protein: recombinant; tags: N-terminal polyhistidine and DsRed monomer fusion (pET32a); label: CyDye5-dUTP incorporated in the synthesized complementary strand; 3' TTTTT single-stranded linker to array surface; dsDNA, one strand shown
Method in brief: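 Binding signal is reported as fluorescence intensity per feature (arbitrary units) from an Axon 4000B scanner. Incubation used 200 nM of each Ni–NTA-purified, N-terminally polyhistidine- and DsRed-fused transcription factor from E. coli BL21-CodonPlus on a double-stranded custom Agilent array for 1 h at 25 °C, with 50 µM zinc acetate in the buffer, followed by washing.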

How did the binding signal turn out when “ACGACTCTTAATTACTGTAATATGGAAATATGGTTGTATGCGGAGTCACCTAGTGCAG” was run?
Its binding signal is 13000 fluorescence intensity (a.u.).

How did the binding signal turn out when “CCACGAATAAATTTGCAATATTTAGCGGTGATATAGATGCCGGAGTCACCTAGTGCAG” was run?
Its binding signal is 7470 fluorescence intensity (a.u.).

Which binding signal does the source give for “GTTACTAATTAAGTTGCATCATTGTCCATGGTTGTACATCCGGAGTCACCTAGTGCAG” here?
The binding signal was 18300 fluorescence intensity (a.u.).

Which binding signal does the source give for “CAAAATTATCTAATTGATGACTATTTCTAAATACACATCACGGAGTCACCTAGTGCAG” here?
The binding signal was 41800 fluorescence intensity (a.u.).

With “TTAATAATCATTGTTTTCTATAAATCCCAATGAATTTACACGGAGTCACCTAGTGCAG” as the sequence, how does the binding signal read?
The binding signal was 3980 fluorescence intensity (a.u.).

Which binding signal does the source give for “ATAATTAATTGCCTCACTAACCTCTGCTTCTTCTTAAGGTCGGAGTCACCTAGTGCAG” here?
The binding signal was 40100 fluorescence intensity (a.u.).

How did the binding signal turn out when “ACTAATATGGATAGATTGAAACATCAAGAACTAAACTGAGCGGAGTCACCTAGTGCAG” was run?
Its binding signal is 29900 fluorescence intensity (a.u.).

“ACAATTTGATTGCTTCCTTTCAACATTGTGGTTGGTGATCCGGAGTCACCTAGTGCAG” was tested. Which binding signal did it give?
The binding signal was 30500 fluorescence intensity (a.u.).

“AAAATATTCAATTAAATTAATGAACATCTATATCTGAACCCGGAGTCACCTAGTGCAG” was tested. Which binding signal did it give?
The binding signal was 16800 fluorescence intensity (a.u.).

With “GACGAATCTTTTAAGCCTAATTACGCCATGATTTAGCAATCGGAGTCACCTAGTGCAG” as the sequence, how does the binding signal read?
Its binding signal is 4130 fluorescence intensity (a.u.).

Which binding signal does the source give for “ATAATTAATTAAGAGTATCCAAAGGCAAGACACATATAGTCGGAGTCACCTAGTGCAG” here?
The binding signal was 17000 fluorescence intensity (a.u.).

For “ACACTAATAGGTCATGTCCATTTCCATCCCATTTCCATTGCGGAGTCACCTAGTGCAG”, which binding signal is on record?
The binding signal was 7050 fluorescence intensity (a.u.).

How did the binding signal turn out when “GCCTAATTAATTCGTCATTAGTAAACATTTACTGTAGCACCGGAGTCACCTAGTGCAG” was run?
Its binding signal is 35900 fluorescence intensity (a.u.).

Which binding signal does the source give for “GATGTGATTTAAGCTATTGATGTGCTCGAGAAACTCTTTTCGGAGTCACCTAGTGCAG” here?
The binding signal was 25000 fluorescence intensity (a.u.).

“GTCACTAATTTACAAATTTACAAATCAGTCCATTCTCACACGGAGTCACCTAGTGCAG” was tested. Which binding signal did it give?
The binding signal was 44100 fluorescence intensity (a.u.).

“TATATAAATATAATTTATTTTGTTGTGATTTATTTTATCACGGAGTCACCTAGTGCAG” was tested. Which binding signal did it give?
Its binding signal is 4940 fluorescence intensity (a.u.).

With “ACTTTAATAATTCAATTTAGAAGGGAAATACCATCCCTTTCGGAGTCACCTAGTGCAG” as the sequence, how does the binding signal read?
The binding signal was 6640 fluorescence intensity (a.u.).

For “TATATATATATATATATCATACACCGTTTAATTATTATTCCGGAGTCACCTAGTGCAG”, which binding signal is on record?
Its binding signal is 12400 fluorescence intensity (a.u.).

“CTTAGCATTCAATTTCTTCTAAAATTGAATACCACCGATTCGGAGTCACCTAGTGCAG” was tested. Which binding signal did it give?
Its binding signal is 9020 fluorescence intensity (a.u.).

“GGTGTTACTAGTTAATTAACACGAAACCTAATGCTAATCTCGGAGTCACCTAGTGCAG” was tested. Which binding signal did it give?
Its binding signal is 7570 fluorescence intensity (a.u.).

For “ATACTTAATCAAAGTAACTCGTAAAATGAATATGAAACAGCGGAGTCACCTAGTGCAG”, which binding signal is on record?
The binding signal was 4340 fluorescence intensity (a.u.).

For “ATTCAAATTGACAACTCTTTGAATTGATCTGCAGGTTCTCCGGAGTCACCTAGTGCAG”, which binding signal is on record?
The binding signal was 34500 fluorescence intensity (a.u.).

With “AAGATAAATTGATCAGTGAATGCTGAAATGGCCAAGTTTTCGGAGTCACCTAGTGCAG” as the sequence, how does the binding signal read?
Its binding signal is 39200 fluorescence intensity (a.u.).

For “GAGATTAATTAAATCGATAAGCTACCAGAGGTTTAGTTTTCGGAGTCACCTAGTGCAG”, which binding signal is on record?
The binding signal was 9960 fluorescence intensity (a.u.).

“CAGTAAATTACGGAACTGCCCCAACCAGTCCCTATAAATACGGAGTCACCTAGTGCAG” was tested. Which binding signal did it give?
The binding signal was 8000 fluorescence intensity (a.u.).

Which binding signal does the source give for “ATTTCGGTCTCATTTCTGTTAGTTCGGTTGGTTTTAATTTCGGAGTCACCTAGTGCAG” here?
The binding signal was 4290 fluorescence intensity (a.u.).

Which binding signal does the source give for “GCATAGTGATTGCAGACATCAAGGTCATAGCAGTGGGTTTCGGAGTCACCTAGTGCAG” here?
The binding signal was 16200 fluorescence intensity (a.u.).

With “AAACTTAATTAATCATATGTTATTGGTTTTCTCGTTTTACCGGAGTCACCTAGTGCAG” as the sequence, how does the binding signal read?
Its binding signal is 18500 fluorescence intensity (a.u.).

With “GATTTTGTCAATCTAAGAGATGTACCACAAGTACTCAAGCCGGAGTCACCTAGTGCAG” as the sequence, how does the binding signal read?
Its binding signal is 6210 fluorescence intensity (a.u.).

How did the binding signal turn out when “AAGTATTTTACGAACTGTGATTGACAGTTAAAGGATCAAACGGAGTCACCTAGTGCAG” was run?
The binding signal was 21200 fluorescence intensity (a.u.).

Which binding signal does the source give for “GTATACATATAGATTGCAATTACGAAAATATAACAAGAGTCGGAGTCACCTAGTGCAG” here?
Its binding signal is 20500 fluorescence intensity (a.u.).

“GGGCATTATTTTGTCCAAATTGATTCTTAACCATTGGGCACGGAGTCACCTAGTGCAG” was tested. Which binding signal did it give?
Its binding signal is 5160 fluorescence intensity (a.u.).

How did the binding signal turn out when “AATTCTAAACGTTAATTGGCAACTTTCTTGTTTTCCATTACGGAGTCACCTAGTGCAG” was run?
The binding signal was 15200 fluorescence intensity (a.u.).

Which binding signal does the source give for “AGAATTTATATTAATTATTCATTAATTTACAAGTGAAGTTCGGAGTCACCTAGTGCAG” here?
Its binding signal is 21800 fluorescence intensity (a.u.).

For “TGAAGACTGGCAAGAATTGATTTATATGTTCTGGGATGTGCGGAGTCACCTAGTGCAG”, which binding signal is on record?
Its binding signal is 17300 fluorescence intensity (a.u.).

Which binding signal does the source give for “TGTATTTAATCAAAATTTAGTCAAATTCAGTTAAATTGTGCGGAGTCACCTAGTGCAG” here?
Its binding signal is 8910 fluorescence intensity (a.u.).

How did the binding signal turn out when “TATATTGGTTCTATATATTAATTGACGTTTTGAACAATATCGGAGTCACCTAGTGCAG” was run?
Its binding signal is 8450 fluorescence intensity (a.u.).

Which binding signal does the source give for “GTGTTAACAATGATTGATTTAAGGTATGGTGGTAGGTGACCGGAGTCACCTAGTGCAG” here?
The binding signal was 49400 fluorescence intensity (a.u.).

How did the binding signal turn out when “CGTCTGGGGTTTGATTGGGATTGAGGCGAATTCGGGCGGTCGGAGTCACCTAGTGCAG” was run?
The binding signal was 34000 fluorescence intensity (a.u.).

How did the binding signal turn out when “AGATTTAATTTAATATTTTATTGTTTACCACACAGCTGCTCGGAGTCACCTAGTGCAG” was run?
Its binding signal is 28200 fluorescence intensity (a.u.).

“ATAAATTGAATCAGCAGTTCAGCACCACATCAAGTGGAATCGGAGTCACCTAGTGCAG” was tested. Which binding signal did it give?
The binding signal was 28000 fluorescence intensity (a.u.).

With “CATTTAATTCATGTGACTTTTGAAATTTGTACCGAAATGCCGGAGTCACCTAGTGCAG” as the sequence, how does the binding signal read?
Its binding signal is 3520 fluorescence intensity (a.u.).
